# Source: PubChem BioAssay (NCATS)
# Inconclusive means that the source gave no clear call. Such entries were picked first, then a sample of the others. For part of these data: Potencies of inconclusive entries are left out as doubtful fits. A structure can be active in one record and inactive in another. Active and inactive are the calls of the source. Unless noted, calls follow the shape of the dose curve; as a rule, active = well fitted curve in the direction sought with a large enough effect; inconclusive = small, poorly fitted or top-dose-only effect, or another doubt; inactive = no such curve, though single readings can be large; an effect the other way counts as inactive or inconclusive.
# Tests used:
# [1] = AP1 Signaling Pathway (AID 357; active = well fitted curve in either direction with a large enough effect, not every such curve was filed as active; inconclusive = small, poorly fitted or top-dose-only effect, or another doubt; also: top concentration of the series differs between compounds; % is scaled to controls: 0 for no effect and ±100 for the full control effect); conditions: ME-180 AP-1-bla reporter, EGF-induced, beta-lactamase ratio, 5 h; at 7.69 µM (top of the series) unless noted
# Summary of the method: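 AP-1-bla ME-180 cells with beta-lactamase reporter under AP-1 response element, stimulated with EC50 EGF; compounds titrated, 5 hours at 37 degrees Celsius. CCF4 read at 460/530 nm ratio; positive and negative modulators judged by AC50.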
# [2] = NFAT Signaling Pathway (AID 444; active = well fitted curve in either direction with a large enough effect, not every such curve was filed as active; inconclusive = small, poorly fitted or top-dose-only effect, or another doubt;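 also: carbachol stimulus at about its EC50 of 1 µM final; % is scaled to controls: 0 for no effect and ±100 for the full control effect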); conditions: Jurkat NFAT-bla M1, carbachol, beta-lactamase ratio, 5 h; at 7.69 µM (top of the series) unless noted
# Summary of the method: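 Jurkat cells with NFAT-driven β-lactamase reporter and co-expressed M1 receptor, stimulated with carbachol (final 1 uM, ~EC50), compound titration, 5 h at 37 °C. CCF4 loaded 1 h at RT; 460/530 nm ratio gave %activity and AC50.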
# [3] = Stat Signaling Pathway (AID 446; active = well fitted curve in either direction with a large enough effect, not every such curve was filed as active; inconclusive = small, poorly fitted or top-dose-only effect, or another doubt;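 also: ME-180 cervical cancer cells given 40 pM IL-6 alongside compound; SIE-controlled beta-lactamase reporter measured as 460/530 nm FRET emission ratio; top concentration of the series differs between compounds; % is scaled to controls: 0 for no effect and ±100 for the full control effect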); conditions: ME-180 SIE beta-lactamase reporter, IL-6 stimulated, 5 h; at 7.69 µM (top of the series) unless noted
# Summary of the method: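 Screening format detects activators and inhibitors alike: ME-180 SIE-bla cells stimulated at 40 pM IL-6 for 5 hrs with compound, then dual-emission beta-lactamase read at 405 nm excitation.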
# [4] = target: 3',5'-cyclic-AMP phosphodiesterase 4B (Homo sapiens) (UniProt Q07343); experiment: qHTS Assay for Inhibitors of PDE-IV (AID 607; active = well fitted activation curve with a large enough effect in the main read-out, with a control signal flat, not every such curve was filed as active; inconclusive = small, poorly fitted or top-dose-only effect, or effect the other way, or a change in a side signal; also: potency is read from the fitted curve at half-maximal effect); conditions: HEK293 ACTOne CNG channel cells, membrane potential fluorescence; activation (PDE inhibition): at 22.9 µM (top of the series)
# Sequence of UniProt Q07343 (Q07343 whole entry, looked up): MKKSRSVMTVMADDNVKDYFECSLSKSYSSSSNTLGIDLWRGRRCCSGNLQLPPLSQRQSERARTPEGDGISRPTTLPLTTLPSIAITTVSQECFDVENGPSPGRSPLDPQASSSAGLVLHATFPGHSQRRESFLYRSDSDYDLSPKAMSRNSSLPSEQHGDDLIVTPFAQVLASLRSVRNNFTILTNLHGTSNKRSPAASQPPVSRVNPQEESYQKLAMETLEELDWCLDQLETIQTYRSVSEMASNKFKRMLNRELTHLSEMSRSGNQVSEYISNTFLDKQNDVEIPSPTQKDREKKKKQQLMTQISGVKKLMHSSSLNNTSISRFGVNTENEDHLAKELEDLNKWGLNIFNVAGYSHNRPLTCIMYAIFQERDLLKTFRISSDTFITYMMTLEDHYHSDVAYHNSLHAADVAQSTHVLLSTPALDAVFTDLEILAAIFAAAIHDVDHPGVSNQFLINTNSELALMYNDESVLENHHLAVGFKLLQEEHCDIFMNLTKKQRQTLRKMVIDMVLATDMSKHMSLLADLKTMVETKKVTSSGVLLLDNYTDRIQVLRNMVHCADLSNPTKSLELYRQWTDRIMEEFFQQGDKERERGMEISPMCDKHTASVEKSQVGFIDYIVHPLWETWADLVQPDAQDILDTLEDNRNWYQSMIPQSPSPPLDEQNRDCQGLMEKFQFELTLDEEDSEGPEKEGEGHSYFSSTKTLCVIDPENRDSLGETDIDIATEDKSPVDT
# Summary of the method: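 The readout is membrane depolarisation from a cAMP-sensing CNG channel, detected with a potential dye at ex 535/em 590. Cells were HEK293-derived (endogenous PDE-IV) at 1000 cells/well, titrated up to 22.9 uM final.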
# [5] = qHTS Assay for Identification of Small Molecule Agonists for Hypoxia Response Element Signaling Pathway (AID 914; active = well fitted activation curve with a large enough effect in the signal ratio, with a control signal flat, not every such curve was filed as active; inconclusive = small, poorly fitted or top-dose-only effect, or effect the other way, or a change in a side signal; the % refers to the signal ratio; also: potency is read from the fitted curve at half-maximal effect; as to activation: top concentration of the series differs between compounds; % of control where 0% means no effect); conditions: ME-180 (cervical carcinoma) HRE-bla reporter, beta-lactamase ratio, CoCl2, 17 h; activation: stronger effect = higher value
# Summary of the method: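 qHTS titration; ME-180 HRE-bla cells; EC50 CoCl2 co-treatment, 17 h at 37 degrees Celsius; CCF4 dye, ex 405nm, em 460nm and 530nm; %Activity from ratio; AC50.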
# [6] = Confirmatory qHTS for small molecule stabilizers of the endoplasmic reticulum resident proteome: Secreted ER Calcium Modulated Protein (SERCaMP) assay (AID 1508628); also: nearly all actives have a fitted effect of over 40% in size; also: potency is read from the fitted curve at half-maximal effect
# Summary of the method: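 We seeded SH-SY5Y-GLuc-SERCaMP cells, added compounds (three concentrations in the primary run, eleven up to 76.6 uM in confirmation), incubated 16 h, depleted ER calcium with thapsigargin, and read luciferase 4 h later.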
# [7] = Cell Viability qHTS for small molecule stabilizers of the endoplasmic reticulum resident proteome (AID 1508629); conditions: cell viability counter-screen, 100 nM thapsigargin for final 4 h;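 also: compound exposure about 46 h in total before the viability read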; also: potency is read from the fitted curve at half-maximal effect
# [8] = Primary qHTS for small molecule stabilizers of the endoplasmic reticulum resident proteome: Secreted ER Calcium Modulated Protein (SERCaMP) assay (AID 1508630); conditions: SH-SY5Y GLuc-SERCaMP (Gaussia luciferase released on ER calcium loss) secretion, thapsigargin, luminescence; activity change, negative = inhibition: at 38.4 µM (top of the series) unless noted; also: potency is read from the fitted curve at half-maximal effect
# Summary of the method: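 GLuc-SERCaMP-expressing SH-SY5Y cells, pretreated 16 h with compound, are challenged with thapsigargin to empty ER calcium stores; after 4 h, coelenterazine is added directly to the medium and luminescence is imaged.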
# [9] = target: Mitogen-activated protein kinase 10 (Mus musculus) (UniProt Q61831); experiment: JNK3 AlphaScreen Assay (AID 530; active = well fitted curve in either direction with a large enough effect, not every such curve was filed as active; inconclusive = small, poorly fitted or top-dose-only effect, or another doubt;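 also: kinase came from lysate of stimulated human HepG2 cells; signal reports phosphorylation of biotinylated GST-cJun 1-79 at Ser73 with 10 µM ATP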; also: potency is read from the fitted curve at half-maximal effect; as to activity change, negative = inhibition: % is scaled to controls: 0 for no effect and ±100 for the full control effect); conditions: JNK3 lysate, c-Jun phosphorylation; activity change, negative = inhibition: at 57.1 µM (top of the series)
# Summary of the method: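 qHTS format: compounds tested as titrations against IL-1beta/TNF-alpha-activated HepG2 lysate JNK3 with biotin-GST-cJun substrate and 10 uM ATP at room temperature. Loss of anti-phospho-cJun AlphaScreen signal indicates inhibition.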
# [10] = target: Cytochrome P450 2C19 (Homo sapiens) (UniProt P33261); experiment: qHTS Assay for Inhibitors and Substrates of Cytochrome P450 2C19 (AID 899); also: potency is read from the fitted curve at half-maximal effect; nearly all actives have a fitted effect of over 60% in size
# Sequence of UniProt P33261 (P33261 whole entry, looked up): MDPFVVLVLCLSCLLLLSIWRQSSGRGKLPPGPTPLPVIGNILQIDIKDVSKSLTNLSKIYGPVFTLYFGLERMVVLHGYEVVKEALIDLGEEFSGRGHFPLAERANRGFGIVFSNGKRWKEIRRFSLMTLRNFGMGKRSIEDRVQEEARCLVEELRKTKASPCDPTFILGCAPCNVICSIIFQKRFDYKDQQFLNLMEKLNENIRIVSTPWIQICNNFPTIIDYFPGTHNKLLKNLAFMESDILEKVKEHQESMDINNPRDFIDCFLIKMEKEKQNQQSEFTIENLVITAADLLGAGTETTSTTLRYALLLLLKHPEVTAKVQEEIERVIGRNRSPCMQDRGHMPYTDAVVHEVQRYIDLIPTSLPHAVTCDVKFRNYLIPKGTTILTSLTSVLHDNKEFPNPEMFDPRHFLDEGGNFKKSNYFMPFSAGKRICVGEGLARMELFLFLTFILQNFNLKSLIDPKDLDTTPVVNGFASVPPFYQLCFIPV
# Summary of the method: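 Luminescent read-out of luciferin formed from Luciferin-H EGE (10uM, equal to KM). Enzyme 5nM in 50mM KPO4; compound added, 10 min at 37C, then NADPH regenerating system for 60 min at 37C. Full inhibition defined by 57uM ketoconazole.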
# [11] = target: Cytochrome P450 3A4 (Homo sapiens) (UniProt P08684); experiment: qHTS Assay for Inhibitors and Substrates of Cytochrome P450 3A4 (AID 884); conditions: recombinant CYP3A4, Luciferin-PPXE luminescence; activity change, negative = inhibition: at 57.1 µM (top of the series); also: potency is read from the fitted curve at half-maximal effect; nearly all actives have a fitted effect of over 50% in size
# Sequence of UniProt P08684 (P08684 whole entry, looked up): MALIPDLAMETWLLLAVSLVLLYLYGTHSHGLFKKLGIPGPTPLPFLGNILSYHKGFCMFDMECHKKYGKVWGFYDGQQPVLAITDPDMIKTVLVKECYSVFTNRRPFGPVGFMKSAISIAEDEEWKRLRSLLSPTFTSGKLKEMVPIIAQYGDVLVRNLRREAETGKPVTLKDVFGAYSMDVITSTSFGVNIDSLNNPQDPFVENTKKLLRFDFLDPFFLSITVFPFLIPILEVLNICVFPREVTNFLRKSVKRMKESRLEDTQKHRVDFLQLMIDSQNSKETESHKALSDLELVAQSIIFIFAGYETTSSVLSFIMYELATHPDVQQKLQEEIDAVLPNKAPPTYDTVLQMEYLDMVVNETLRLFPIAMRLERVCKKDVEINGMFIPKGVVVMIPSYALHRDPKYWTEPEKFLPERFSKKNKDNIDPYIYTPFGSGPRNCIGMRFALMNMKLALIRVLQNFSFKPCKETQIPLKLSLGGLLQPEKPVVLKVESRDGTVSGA
# Summary of the method: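 20 nM human CYP3A4 with 25 uM Luciferin-PPXE (at KM) in 200 mM KPO4, preincubated 10 min with compound; NADPH regeneration started a 60 min RT reaction. Luciferin detected by luminescence, normalized to 57 uM ketoconazole as full inhibition.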
# [12] = target: Dual specificity protein kinase CLK4 (Homo sapiens) (UniProt Q9HAZ1); experiment: qHTS Assay for Inhibitors of CDC-like Kinase 4 (ADP-FP Assay) (AID 1795);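 also: recombinant human CLK4 phosphorylating RS repeat peptide at 1 µM ATP; potency is read from the fitted curve at half-maximal effect; nearly all actives have a fitted effect of over 60% in size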
# Sequence of UniProt Q9HAZ1 (Q9HAZ1 whole entry, looked up): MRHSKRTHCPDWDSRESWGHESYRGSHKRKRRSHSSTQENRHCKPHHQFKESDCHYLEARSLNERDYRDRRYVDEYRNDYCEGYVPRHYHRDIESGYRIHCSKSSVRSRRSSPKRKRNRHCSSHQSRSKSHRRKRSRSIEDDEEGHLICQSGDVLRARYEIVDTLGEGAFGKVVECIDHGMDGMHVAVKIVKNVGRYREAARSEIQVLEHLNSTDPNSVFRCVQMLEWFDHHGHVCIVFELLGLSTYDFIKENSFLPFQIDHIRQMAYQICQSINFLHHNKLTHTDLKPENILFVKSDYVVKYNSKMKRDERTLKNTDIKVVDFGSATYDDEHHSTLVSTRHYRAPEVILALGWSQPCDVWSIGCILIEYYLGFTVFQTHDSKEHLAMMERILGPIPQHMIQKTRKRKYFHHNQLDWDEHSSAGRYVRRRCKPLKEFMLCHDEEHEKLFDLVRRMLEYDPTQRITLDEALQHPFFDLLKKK
# Summary of the method: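 Kinase activity was measured as ADP production using Transcreener orange tracer (4 nM) and ADP antibody (1 ug/mL) fluorescence polarization, with ADP calculated from a calibration curve. The 1 h reaction contained 6.25 nM Clk4, 1 uM ATP and 100 uM RS peptide at pH 7.5 with Mg2+.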
# Tags tell the direction and shape of the fitted curve or compound fluorescence and quenching.
smiles,measurement,setting,value
CN1CCN(c2ncc3nc(-c4cc(F)cc(F)c4)c(=O)n(-c4ccccc4)c3n2)CC1,"activity change, negative = inhibition",[1],inconclusive: 91.5% [activator]
same,"activity change, negative = inhibition",[2],inconclusive: 192% [activator]
same,"activity, negative = inhibition",[3],inconclusive: 203% [activator]
same,Potency,[4],"inconclusive [activator, single point]"
same,Potency,[5],"inconclusive [fluorescent, partial curve]"
same,Potency,[6],inactive
same,Potency,[7],"inconclusive [cytotoxic, partial curve, poor fit]"
same,Potency,[8],"inconclusive [inhibitor, partial curve, poor fit]"
NC(=NC1C2CC3CC(C2)CC1C3)Nc1ccc(I)cc1 (stereo not drawn),Potency,[9],inactive
same,Potency,[4],"inconclusive [rising, partial curve]"
same,Potency,[10],active: 5.01 µM
same,Potency,[6],inactive
same,Potency,[7],active: 12.6 µM
same,Potency,[8],active: 4.47 µM
c1ccc(-c2cccc(N3CC4(CCNCC4)C3)c2)cc1,Potency,[9],"inconclusive [inhibitor, partial curve]"
same,Potency,[5],"inconclusive [activator, single point]"
same,Potency,[6],"inconclusive [inhibitor, single point]"
same,max response,[7],inactive: -13.3%
same,Potency,[8],"inconclusive [inhibitor, partial curve, poor fit]"
CN1CCN(c2ncncc2-c2ccccc2C(F)(F)F)CC1,"activity change, negative = inhibition",[2],inconclusive: -63.5% [inhibitor]
same,Potency,[11],"inconclusive [inhibitor, full curve]"
same,activation,[5],inactive: 5.49%
same,Potency,[6],"inconclusive [inhibitor, partial curve]"
same,max response,[7],inactive: 18.7%
same,Potency,[8],"inconclusive [inhibitor, partial curve, poor fit]"
CN1CCN(c2ncnc3ccc(-c4ccccc4Cl)cc23)CC1,"activity change, negative = inhibition",[1],inconclusive: 49.1% [activator]
same,"activity, negative = inhibition",[3],inconclusive: 25.1% [activator]
same,Potency,[4],"inconclusive [activator, partial curve]"
same,Potency,[5],"inconclusive [inhibitor, partial curve]"
same,Potency,[12],"inconclusive [falling, partial curve]"
same,Potency,[6],"inconclusive [inhibitor, single point]"
same,Potency,[7],"inconclusive [cytotoxic, partial curve]"
same,Potency,[8],"inconclusive [inhibitor, partial curve, poor fit]"
